# About 200 (0.47%) of roughly 43,000 compounds were called active. Inconclusive results (about 12%) are left out. Calls come from the whole dose curve; as a rule, active = well fitted cell-killing curve with a large enough effect; inconclusive = small, poorly fitted or top-dose-only effect, or effect the other way; inactive = flat fitted curve, though single readings scatter. The list shows a part of the results.
# Experiment: Cell viability qHTS assay in S16 Pmp22-F2sN cells; note: nearly all actives have a fitted effect of over 65% in size
# Details: S16 Pmp22-F2sN Schwann cells (luciferase reporters placed in the Pmp22 gene) viability, CellTiter-Glo, 24 h; series mostly up to 57.5 µM; activity change, negative = cytotoxicity: at the top concentration
# In short: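 Luminescence from CellTiter-Glo, read by CCD camera after a 15 min room-temperature incubation, served as the viability signal. Reporter Schwann cells (S16 Pmp22-F2sN) had been treated with pin-transferred compounds for 24 h at 37C.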
# % is set by controls: 0 for no effect and ±100 for the full control effect.
row,Compound,"activity change, negative = cytotoxicity"
1,O=C(NCc1ccccc1)C1CCN(S(=O)(=O)c2ccc3[nH]c(=O)ccc3c2)CC1,inactive: 16.3%
2,Cc1cccc(N(C)S(=O)(=O)c2c(C(=O)N3CCCCCC3)c(C)n(C)c2C)c1,inactive: 8%
3,Cc1ccc(CNC(=O)CN2CCN(Cc3ccc(F)cc3)C2=O)cc1,inactive: -1.89%
4,Cc1ccc(Cl)cc1-n1ncc2c(N3CCC(C)CC3)ncnc21,inactive: -23.7%
5,COc1ccccc1NC(=O)C1CCN(S(=O)(=O)c2cn(C)cn2)CC1,inactive: -6.4%
6,COc1ccccc1-c1cc(NC(=O)COc2ccc(C)c(C)c2)n(-c2ccccc2)n1,inactive: -13.2%
7,CC(C)c1ccc(NC(=O)CCNS(=O)(=O)c2ccc3c(c2)CCCC(=O)N3)cc1,inactive: -3.13%
8,CCOC(=O)CC(NC(=O)CCc1c(C)nc2ncnn2c1C)c1ccc(OC(C)C)cc1 (stereo not given),inactive: 9.94%
9,CCOc1ccc(NC(=O)Cn2c(=O)cc(C)c3c(C)nn(-c4cccc(Cl)c4C)c32)cc1,inactive: 21.1%
10,CCOc1ccc(C(=O)N2CCN(CCc3ccccn3)CC2)cc1,inactive: 5.7%
11,Cn1c(=O)[nH]c(=O)c2c1nc1n2CCN1c1ccccc1,inactive: 1.69%
12,CCOc1ccc(S(=O)(=O)c2cn(Cc3ccc(OC)cc3)c3ccc(F)cc3c2=O)cc1,inactive: -12.7%
13,Cc1ccc(-c2nc(S(=O)(=O)c3ccc(C)cc3)c(N3CCCCCC3)o2)cc1,inactive: -18.3%
14,Cc1ccc(N2CCN(S(=O)(=O)c3nnc(NC(=O)c4ccc(C(C)C)cc4)s3)CC2)cc1,inactive: 3.57%
15,Cc1ccccc1CSc1nc2cccnc2n1Cc1ccc(C(=O)NC2CC2)cc1,inactive: -28.3%
16,CCOc1ccc(Nc2nc(C)c(NC(=O)c3cccc(OC)c3)c(Nc3ccc(OCC)cc3)n2)cc1,inactive: -25.5%
17,COc1ccc(CNC(=O)C2CCC(CNS(=O)(=O)c3cccs3)CC2)cc1 (stereo not given),inactive: 1.41%
18,CCOC(=O)c1ccccc1NC(=O)CSc1cn(CC(=O)N2CCOCC2)c2ccccc12,inactive: 10.7%
19,COc1ccc(S(=O)(=O)N(CC(=O)Nc2cccc(C)c2)c2ccc(C)cc2)cc1OC,inactive: 18.9%
20,Cc1cc(C)c(NC(=O)CSc2nc(-c3ccc(F)cc3)nc3c2Cc2c(CO)cnc(C)c2O3)c(C)c1,inactive: -0.0563%
21,O=C(NCCC1=CCCCC1)c1ccc2c(c1)N(Cc1cccc(Cl)c1)C(=O)c1ccccc1S2(=O)=O,inactive: -5.25%
22,COc1ccc(N2CCN(c3ccc(-c4nc(-c5cccc(C)c5)no4)cc3[N+](=O)[O-])CC2)cc1,inactive: 4.23%
23,CCOC(=O)C1=C(CN(CC)Cc2ccccc2)NC(=O)NC1c1ccc(OC(C)C)cc1 (stereo not given),inactive: -17.8%
24,COc1ccccc1CNC(=O)c1ccc(N2CCCC2)c(NC(=O)NCc2ccc(F)cc2)c1,inactive: 1.63%
25,CCCCSCCCNC(=O)C1CCN(Cc2nc(-c3cccc(Br)c3)oc2C)CC1,inactive: 3.93%
